{
  "source": "PubChem BioAssay AID588342",
  "about": "(National Center for Advancing Translational Sciences (NCATS), 2011)",
  "note": "Several values for one entry are separate records, joined by “and”; a condition that tells them apart may be missing. Identical values can stand only once. About 25,000 (6.9%) of roughly 360,000 compounds were called active. Inconclusive results, whose numbers are uncertain, are shown with a selection of clear calls. The call rests on the fitted dose curve; in most records, active means well fitted inhibition curve with a large enough effect; inconclusive means small, poorly fitted or top-dose-only effect; inactive means flat fitted curve, though single readings scatter. Potencies of inconclusive entries are doubtful fits and often do not repeat. Potency means the concentration at half of the fitted maximal effect; tags describe the fitted curve by direction and shape.",
  "data": [
    {"target": "Luciferin 4-monooxygenase (Photinus pyralis) (UniProt P08659)", "sequence (P08659 whole entry, looked up)": "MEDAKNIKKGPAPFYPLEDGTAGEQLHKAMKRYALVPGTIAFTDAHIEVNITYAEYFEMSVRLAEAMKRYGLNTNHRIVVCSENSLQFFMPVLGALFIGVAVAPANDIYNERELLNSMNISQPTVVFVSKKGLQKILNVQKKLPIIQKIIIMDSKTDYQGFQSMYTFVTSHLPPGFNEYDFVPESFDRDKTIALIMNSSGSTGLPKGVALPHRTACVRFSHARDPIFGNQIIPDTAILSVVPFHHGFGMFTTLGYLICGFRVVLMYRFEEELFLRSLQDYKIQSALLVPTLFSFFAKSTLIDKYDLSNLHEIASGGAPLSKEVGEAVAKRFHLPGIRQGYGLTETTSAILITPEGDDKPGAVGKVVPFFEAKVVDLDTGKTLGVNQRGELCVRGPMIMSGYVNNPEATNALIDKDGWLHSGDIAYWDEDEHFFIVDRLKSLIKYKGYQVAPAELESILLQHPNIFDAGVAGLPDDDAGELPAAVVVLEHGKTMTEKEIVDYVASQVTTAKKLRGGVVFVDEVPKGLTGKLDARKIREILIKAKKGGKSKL", "assay": "qHTS profiling assay for firefly luciferase inhibitor/activator using purifed enzyme and Km concentrations of substrates (counterscreen for miR-21 project); further: nearly all actives have a fitted effect of over 55% in size", "settings": "purified FLuc, luminescence inhibition; series mostly up to 57.5 µM", "summary_of_the_method": "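Biochemical qHTS of compounds, final roughly 60 µM downward over six points, against 10 nM purified firefly luciferase using Km concentrations of substrates (10 uM D-luciferin, 10 uM ATP) in Tris acetate pH 7.5 buffer; luminescence output.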", "values": [
      {"smiles": "Clc1ccc(-c2ccnc(-n3cccc3)n2)s1", "Potency": "inconclusive: 37.9 µM [inhibitor, single point]"},
      {"smiles": "N#C/C(=C\\c1ccc(O)cc1)c1nc2ccccc2o1", "Potency": "active: 10.7 µM"},
      {"smiles": "CCNC(=O)OCCC12CC3CC(CC(C3)C1)C2", "Potency": "inconclusive: 23.9 µM [inhibitor, single point]"},
      {"smiles": "CCOc1ccc(NC(=O)CN2C(=O)C(c3ccc(Cl)cc3)=NC2(C)C)cc1", "Potency": "inconclusive: 2.39 µM [inhibitor, partial curve, poor fit]"},
      {"smiles": "O=[N+]([O-])c1ccccc1OC/C(=N\\O)c1ccccc1", "Potency": "inconclusive: 37.9 µM [inhibitor, partial curve, poor fit]"},
      {"smiles": "CC(C)C(C)(C#N)NC(=O)CSc1nnc(C(F)(F)F)n1C", "note": "(stereo not given)", "Potency": "inactive"},
      {"smiles": "O=C(NCCCN1CCc2ccccc2C1)Nc1ccc(Br)cc1", "Potency": "inconclusive: 37.9 µM [inhibitor, partial curve, poor fit]"},
      {"smiles": "NC(=S)Cc1nc(-c2ccc(Cl)cc2)cs1", "Potency": "inconclusive: 15.1 µM [inhibitor, partial curve, poor fit]"},
      {"smiles": "CN(CC(=O)Nc1cccc(S(=O)(=O)NC2=NCCCCC2)c1)Cc1ccc(C(C)(C)C)cc1", "Potency": "inconclusive: 37.9 µM [inhibitor, partial curve, poor fit]"},
      {"smiles": "CC(=O)c1sc(Nc2cccc(C)c2)nc1C", "Potency": "active: 21.3 µM"},
      {"smiles": "COc1ccc(-c2nc(C)c(C(C)=O)n2O)cc1", "Potency": "inconclusive: 16.9 µM [inhibitor, partial curve, poor fit]"},
      {"smiles": "O=C(CN1CCCCC1)Nc1ccccc1Cl", "Potency": "inconclusive: 37.9 µM [inhibitor, partial curve, poor fit]"},
      {"smiles": "Oc1cccc(/C=N/N=C/c2cccc(O)c2O)c1O", "Potency": "active: 1.69 µM"},
      {"smiles": "Cc1c(OCc2nn[nH]n2)ccc2c(-c3ccccc3)cc(=O)oc12", "Potency": "inconclusive: 37.9 µM [inhibitor, partial curve, poor fit]"},
      {"smiles": "CCOC(=O)c1csc(NC(=O)C2CCCCC2)n1", "Potency": "inconclusive: 23.9 µM [inhibitor, single point]"},
      {"smiles": "COc1ccc(C)cc1NC(=O)c1c2c(nc3ccccc13)C(=O)N(C1CCCCC1)C2", "Potency": "inconclusive: 26.9 µM [inhibitor, partial curve]"},
      {"smiles": "CCOc1ccc(C(=O)n2cnnc2N)cc1", "Potency": "inconclusive: 26.9 µM [inhibitor, partial curve, poor fit]"},
      {"smiles": "Cc1ccc(Cl)cc1NC(=O)C(Cc1ccccc1)NS(=O)(=O)c1cccc2nsnc12", "note": "(stereo not given)", "Potency": "inactive"},
      {"smiles": "Cc1coc2c(C)c3oc(=O)c(CCC(=O)NCc4ccccn4)c(C)c3cc12", "Potency": "inactive"},
      {"smiles": "C/C(N)=C(/C#N)C(=O)CSc1nc2ccccc2c(=O)n1-c1ccc(C)c(Cl)c1", "Potency": "inactive"},
      {"smiles": "O=c1c2cc(Cl)ccc2nc(-c2ccccc2)n1O", "Potency": "inconclusive: 37.9 µM [inhibitor, single point]"},
      {"smiles": "CCSc1nc2ccccc2n1CCOc1ccccc1", "Potency": "inconclusive: 19 µM [inhibitor, partial curve]"},
      {"smiles": "O=[N+]([O-])c1ccccc1/C=C/C=N/N1CCCCC1", "Potency": "active: 10.7 µM"},
      {"smiles": "COc1ccccc1C(=O)Nc1ccc2c(c1)OCO2", "Potency": "active: 13.5 µM"},
      {"smiles": "COc1ccc2cc(CCl)c(Cl)nc2c1", "Potency": "inactive"},
      {"smiles": "CCCCC(=O)Nc1ccc(C(=O)OC2CCCCC2)cc1", "Potency": "inconclusive: 21.3 µM [inhibitor, partial curve, poor fit]"},
      {"smiles": "COc1ccc2c(CC(=O)NCc3ccc4c(c3)OCO4)coc2c1", "Potency": "inconclusive: 37.9 µM [inhibitor, partial curve, poor fit]"},
      {"smiles": "C/C(=N/NC(=O)c1cccs1)c1cccc(N)c1", "Potency": "active: 19 µM"},
      {"smiles": "CCc1ccc(NC(=O)Nc2ccccc2OCc2cc(=O)n3ccccc3n2)cc1", "Potency": "active: 0.213 µM"},
      {"smiles": "O=C(Cc1ccc(Cl)cc1)Nc1ccc(Br)cn1", "Potency": "inconclusive: 37.9 µM [inhibitor, single point]"},
      {"smiles": "Cc1cc(C)c(C)c(S(=O)(=O)NC(C(=O)O)C(C)C)c1C", "note": "(stereo not given)", "Potency": "inconclusive: 30.1 µM [inhibitor, partial curve, poor fit]"},
      {"smiles": "O=C(NC1CCc2ccccc21)C1CCN(S(=O)(=O)c2ccc(Cl)cc2)CC1", "note": "(stereo not given)", "Potency": "inactive"},
      {"smiles": "Cc1ccc(N2C(=O)N(CC(=O)Nc3ccc(C)c(C)c3)C(=O)C2C)cc1", "note": "(stereo not given)", "Potency": "inconclusive: 21.3 µM [inhibitor, partial curve, poor fit]"},
      {"smiles": "COc1cc(OC)c(OC)cc1/C=C/C(=O)c1ccc(NS(=O)(=O)c2ccc(C)cc2)cc1", "Potency": "inactive"},
      {"smiles": "COc1cccc(C(=O)NC(=O)Nc2cc(C)on2)c1", "Potency": "inconclusive: 7.57 µM [inhibitor, partial curve]"},
      {"smiles": "COc1ccc2c(c1OC)C(=O)N1N=C(c3ccc(O)cc3)CC21", "note": "(stereo not given)", "Potency": "inconclusive: 37.9 µM [inhibitor, single point]"},
      {"smiles": "Cc1ccc(NC(=O)COC(=O)c2ccco2)cc1C", "Potency": "inconclusive: 19 µM [inhibitor, partial curve, poor fit]"},
      {"smiles": "CN1C(=O)C2(Oc3ccccc3C3CC(c4ccccc4)=NN32)c2ccccc21", "note": "(stereo not given)", "Potency": "inconclusive: 37.9 µM [inhibitor, single point]"},
      {"smiles": "COc1ccccc1[C@]1(C)ON(c2ccccc2C(F)(F)F)C1=O", "Potency": "inactive"},
      {"smiles": "CC(=O)c1cccc(NC(=O)Nc2ccc(C(=O)N3CCOCC3)cc2)c1", "Potency": "inconclusive: 23.9 µM [inhibitor, partial curve, poor fit]"},
      {"smiles": "O=C(NCCc1csc(-c2cccnc2)n1)c1ccccc1", "Potency": "inconclusive: 15.1 µM [inhibitor, partial curve] and inconclusive: 37.9 µM [inhibitor, partial curve, poor fit]"},
      {"smiles": "CC(C)(C)c1ccc(OCCCC(=O)Nc2cccc(S(=O)(=O)N3CCOCC3)c2)cc1", "Potency": "inconclusive: 19 µM [inhibitor, partial curve]"},
      {"smiles": "Cc1csc(NC(=O)c2ccc(N3CCCC3=O)cc2)n1", "Potency": "active: 1.9 µM"},
      {"smiles": "O=C(Nc1ccc(Oc2cccnc2)nc1)c1ccc(C(F)(F)F)cc1", "Potency": "inconclusive: 26.9 µM [inhibitor, single point]"},
      {"smiles": "Cc1ccc(NCC(=O)Nc2cccc(S(=O)(=O)N(C)C)c2)c(Cl)c1", "Potency": "inconclusive: 9.53 µM [inhibitor, partial curve, poor fit]"}
    ]}
  ]
}
